This is one part of the list. The full chains were built here from the parent and the listed change. Inactive controls read about 0.05.
B1: TEV protease; numbered along this chain (parent)
chain: MGESLFKGPRDYNPISSSICHLTNESDGHTTSLYGIGFGPFIITNKHLFRRNNGTLVVQSLHGVFKVKDTTTLQQHLVDGRDMIIIRMPKDFPPFPQKLKFREPQREERICLVTTNFQTKSMSSMVSDTSCTFPSGDGIFWKHWIQTKDGQCGSPLVSTRDGFIVGIHSASNFTNTNNYFTSVPKNFMELLTNQEAQQWVSGWRLNADSVLWGGHKVFMVKPEEPFQPVKEATQL

Variants of: B1
Test: raw area under fraction-flipped curve 0-4 h after induction (AUC4h, not background-subtracted), DNA-recorder readout of cleavage of the substrate (dimensionless); higher = more cleavage of the substrate by the protease variant
Details: temperature: 34 °C; time window: 0-4 h after rhamnose induction
Procedure: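 In vivo DNA recorder in E. coli TOP10(DE3) ΔrhaA at 34 °C. Each TEVp single-site mutant (parent TEVp 0) is paired with a single-site variant of the 7-mer TEVs (canonical ENLYFQ|S). The substrate sits between flexible linkers in a Bxb1-sfGFP-TEVs-SsrA fusion, so cleavage stabilises Bxb1 and speeds flipping of a recombination array, read by NGS. The value is the raw area under the fraction-flipped curve over 0-4 h after rhamnose induction (AUC4h), with ≥20 reads per time point. It is not background-subtracted; inactive controls average about 0.047.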
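Also: Bxb1 expression induced with 0.2% (w/v) L-rhamnose at OD600 near 0.5, cultures sampled hourly, flipped fraction per protease–substrate barcode pair counted by paired-end Illumina sequencing.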

Row | Variant | area with substrate CNLYFQS | area with substrate DNLYFQS | area with substrate GNLYFQS | area with substrate HNLYFQS | area with substrate INLYFQS | area with substrate KNLYFQS | area with substrate LNLYFQS | area with substrate MNLYFQS | area with substrate NNLYFQS | area with substrate PNLYFQS | area with substrate QNLYFQS | area with substrate RNLYFQS | area with substrate VNLYFQS | area with substrate WNLYFQS | area with substrate FNLYFQS | area with substrate SNLYFQS | area with substrate TNLYFQS | area with substrate YNLYFQS
1 | P89N | 0.0518 | 0.056 | 0.0553 | 0.0543 | 0.0531 | 0.0611 | 0.0492 | 0.0501 | 0.0646 | 0.0777 | 0.0502 | 0.0736 | 0.0648 | 0.0637 |  |  |  | 
2 | V126A | 0.0639 | 0.057 |  | 0.0627 | 0.0597 | 0.0537 | 0.0639 | 0.0618 | 0.0541 | 0.0841 | 0.0709 |  | 0.0731 | 0.0545 | 0.0654 | 0.0757 | 0.0529 | 0.0636
3 | V126Y | 0.0751 | 0.0957 | 0.0719 | 0.0687 | 0.0589 | 0.0549 |  |  | 0.0713 | 0.07 |  |  |  | 0.064 |  | 0.0771 | 0.0499 | 
4 | S124V | 0.0704 | 0.0935 | 0.0596 | 0.054 |  |  | 0.0666 | 0.0591 | 0.0687 | 0.0696 |  |  | 0.0591 | 0.0494 | 0.0605 | 0.0656 | 0.0655 | 0.0535
5 | S124P | 0.0664 | 0.074 |  | 0.0614 | 0.0624 |  | 0.072 | 0.0648 | 0.0785 | 0.0492 |  |  |  | 0.0495 | 0.0652 |  | 0.0623 | 0.066
6 | S124R | 0.063 | 0.0991 | 0.0667 | 0.0624 | 0.0519 | 0.0984 | 0.0648 | 0.0753 | 0.0744 | 0.0686 |  |  |  | 0.0582 | 0.0791 | 0.0446 | 0.0735 | 0.0705
7 | W141P | 0.0455 | 0.0448 |  | 0.0491 |  | 0.0736 | 0.072 |  |  | 0.0506 |  | 0.0448 | 0.0359 | 0.0531 | 0.0479 |  | 0.059 | 0.0525
8 | W141I | 0.0748 | 0.0621 |  | 0.0729 |  | 0.0471 | 0.0578 | 0.0483 |  | 0.0523 |  |  | 0.0615 | 0.0466 |  | 0.0717 | 0.0574 | 
9 | W141A | 0.0523 | 0.0615 | 0.0552 | 0.0517 |  |  |  | 0.0723 |  | 0.0482 | 0.0518 |  | 0.0573 | 0.0584 | 0.0521 | 0.0363 | 0.0562 | 0.0499
10 | R109G | 0.0474 | 0.0746 | 0.0684 |  | 0.0722 |  | 0.0585 | 0.0593 | 0.0631 | 0.0718 |  |  |  | 0.0481 | 0.0626 | 0.0656 | 0.0537 | 
11 | R109Q | 0.0793 | 0.0569 | 0.0741 | 0.0677 | 0.104 | 0.0668 | 0.0681 |  |  |  | 0.0678 | 0.0748 |  | 0.0602 |  |  | 0.066 | 
12 | R109I | 0.0675 | 0.0676 |  | 0.051 |  |  |  | 0.0602 | 0.0608 | 0.0692 |  |  | 0.0738 | 0.0575 |  | 0.0527 | 0.0387 | 0.0622
13 | R109W | 0.0653 | 0.102 |  | 0.0687 | 0.0601 | 0.0724 |  |  |  | 0.0663 |  |  | 0.0683 | 0.0619 |  | 0.069 |  | 
14 | S127K | 0.0622 | 0.099 |  |  |  |  | 0.0554 |  |  |  |  |  |  | 0.0484 | 0.0674 | 0.0738 | 0.0697 | 0.0748
15 | S127G | 0.0727 | 0.0808 |  | 0.0679 | 0.062 | 0.0749 |  |  | 0.077 | 0.0653 | 0.0712 | 0.0608 |  |  | 0.0651 |  | 0.0683 | 0.0641

From the supplement of paper PMC12217912
